Measured values published in patent US11517019B2, “Microbicidal system” (priority 2020, dated 2022).

Assay: Dissolution of CX powder in 140° F. municipal water
Settings: 50 mg CX in 1 L water at 140° F. with stirring
Method: The amount of added CX was twice the expected amount needed to reach saturation.
For chlorhexidine in its basic form, i.e., without the presence of acids, the published data on saturation levels in water vary widely, with reported values of 10, 26, 61 and even 800 mg/L (ppm) when measured at ambient temperature. Moreover, it is well known that hot water dissolves small molecules to a greater degree than does water at room temperature, because of the greater energy in heat. To test the expected lifetime of CX crystals in the present invention, six 50 mg aliquots of pure CX powder were exposed to 1 liter each of 140° F. (60° C.) municipal water for respective time periods of 0 seconds, 10 seconds, 30 seconds, 90 seconds, 300 seconds, and 1,200 seconds, then the remaining solid CX was removed and the CX concentration in the water was determined. […] This represented just under 2 weight percent of the powder in each case, and no more than that dissolved even with 20 minutes of exposure.

N=C(NCCCCCCNC(=N)NC(=N)Nc1ccc(Cl)cc1)NC(=N)Nc1ccc(Cl)cc1 [CX, N,N″″1,6-Hexanediylbis[N-(4-chlorophenyl) (imidodicarbonimidic diamide)]]
time to reach near-equilibrium saturation levels: ≤ 30 s
final concentration of CX in water (at 20 minutes): 0.82 mg/L
